# Data reported in article PMC4336329 (PLoS ONE, 2015).
# About 2,200 (0.71%) of roughly 310,000 compounds showed an effect of 50% or more. Effects have a minus sign here. The list shows a part of the results.
# Target: human ether-à-go-go-related gene (hERG) potassium channel (human, UniProt Q12809)
# Assay: primary screen, population patch clamp on CHO cells stably expressing hERG
# Chain of human ether-à-go-go-related gene (hERG) potassium channel (Q12809 whole entry, looked up): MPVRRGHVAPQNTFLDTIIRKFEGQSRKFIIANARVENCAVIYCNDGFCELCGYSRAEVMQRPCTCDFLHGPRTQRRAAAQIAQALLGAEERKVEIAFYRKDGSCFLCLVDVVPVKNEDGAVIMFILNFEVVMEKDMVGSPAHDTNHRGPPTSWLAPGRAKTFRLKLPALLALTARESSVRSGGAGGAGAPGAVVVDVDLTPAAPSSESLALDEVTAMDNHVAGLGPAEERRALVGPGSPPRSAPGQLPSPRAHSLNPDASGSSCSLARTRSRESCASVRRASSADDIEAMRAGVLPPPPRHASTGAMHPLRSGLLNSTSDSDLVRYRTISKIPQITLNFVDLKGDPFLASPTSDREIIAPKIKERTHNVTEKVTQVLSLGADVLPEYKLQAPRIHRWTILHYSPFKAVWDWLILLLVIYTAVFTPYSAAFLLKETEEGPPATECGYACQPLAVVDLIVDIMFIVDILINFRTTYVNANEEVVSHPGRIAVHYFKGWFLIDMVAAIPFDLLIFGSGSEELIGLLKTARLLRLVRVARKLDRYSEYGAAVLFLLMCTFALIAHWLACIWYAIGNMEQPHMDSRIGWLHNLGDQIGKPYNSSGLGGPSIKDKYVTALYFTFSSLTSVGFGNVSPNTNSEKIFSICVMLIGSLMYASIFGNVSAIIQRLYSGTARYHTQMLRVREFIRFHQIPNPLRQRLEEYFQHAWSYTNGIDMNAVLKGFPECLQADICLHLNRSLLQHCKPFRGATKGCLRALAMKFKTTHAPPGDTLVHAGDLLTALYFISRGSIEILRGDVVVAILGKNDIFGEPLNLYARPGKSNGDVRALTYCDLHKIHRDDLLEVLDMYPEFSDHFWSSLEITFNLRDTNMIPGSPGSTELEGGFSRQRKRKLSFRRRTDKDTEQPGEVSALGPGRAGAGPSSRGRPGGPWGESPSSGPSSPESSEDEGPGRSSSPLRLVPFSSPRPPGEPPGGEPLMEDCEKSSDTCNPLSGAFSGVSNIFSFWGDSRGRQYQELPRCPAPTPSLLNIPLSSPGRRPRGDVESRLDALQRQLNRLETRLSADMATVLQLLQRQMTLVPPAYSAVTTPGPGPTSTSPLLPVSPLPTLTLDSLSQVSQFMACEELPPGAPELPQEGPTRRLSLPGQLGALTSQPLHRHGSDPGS
row,SMILES,"hERG current change (%, negative = inhibition) at 1uM"
1,O=C(NCc1ccccc1)c1cc(-c2ccncc2)nc2ccc(S(=O)(=O)N3CCOCC3)cc12,8.83%
2,O=C(N=C1SC2CS(=O)(=O)CC2N1c1ccccc1C(F)(F)F)C1CCCO1 (stereo not drawn),13.4%
3,Cc1cccnc1NC(=O)CN1C(=O)NC(C)(c2ccc3ccccc3c2)C1=O (stereo not drawn),0.186%
4,Cc1onc(-c2ccccc2)c1C(=O)Nc1nnc(C(C)C)s1,-1.64%
5,O=C(c1cn(-c2ccccc2)nc1-c1cccs1)N1CCN(c2ccc(F)cc2)CC1,8.44%
6,CCN(C(=O)CSc1ncn[nH]1)C1CCCCC1,7.97%
7,CCOC(=O)CCP(=O)(O)C(C)(O)c1ccccc1 (stereo not drawn),12%
8,Cn1c(CO)cnc1SCC(=O)c1ccc(Br)cc1,20.3%
9,O=C1c2cc(CO)cc(O)c2C(=O)c2c(O[C@@H]3OC(CO)[C@@H](O)[C@@H](O)[C@@H]3O)cccc21 (stereo partly drawn),15.9%
10,O=S(=O)(NCc1cn2ccsc2n1)c1ccc(Oc2ccccc2)cc1,0.948%
11,Cc1ncc([N+](=O)[O-])n1CCOC(=O)NC(NCc1ccccc1Cl)C(Cl)(Cl)Cl (stereo not drawn),2.59%
12,COc1ccc(CCN2CN(S(=O)(=O)c3ccccc3)c3nc4ccccc4nc32)cc1OC,7.48%
13,Cc1cc(O)c(C(C)C)cc1NS(=O)(=O)c1ccccc1,10.4%
14,COc1ccc(C(CNC(=O)C(CCSC)NC(=O)c2ccccc2Cl)N2CCOCC2)cc1 (stereo not drawn),8.28%
15,CCOc1ccc(NS(=O)(=O)c2ccc(C(=O)N(C)CC(=O)Nc3ccc(C)cc3)cc2)cc1,15.5%
16,Cc1cc(C)nc(NS(=O)(=O)c2ccc(NC(=O)c3ccc(N4C(=O)CCC4=O)cc3)cc2)n1,10.9%
17,CCOc1ccc(-c2csc(NC(=O)c3ccco3)n2)cc1,8.42%
18,CC(=O)Nc1ccc(C(=O)OCC(=O)Nc2ccc(Cl)cc2C(=O)c2ccccc2)cc1,1.4%
19,COc1ccc(NC(=O)C2(c3ccc(NC(=O)c4ccc(OC)cc4)cc3)CCCC2)cc1,-12.1%
20,COc1ccc(S(=O)(=O)N2CCOCC2)cc1C(=O)N1CCCC1,15.7%
21,O=C(O)c1cccc(Nc2nc(N3CCOCC3)nc(N3CCOCC3)n2)c1,9.41%
22,O=C(O)CN1C(=O)S/C(=C\c2cccnc2)C1=O,12.8%
23,Cc1c(C(N)=O)sc2ncn(CC(=O)NCCc3ccccc3)c(=O)c12,0.398%
24,Cc1ccccc1CNC(=O)CC1C(=O)NCCN1CC1CCCCC1 (stereo not drawn),13.5%
25,NC(=O)c1ccc(Oc2cccc3cccnc23)c([N+](=O)[O-])c1,-7.15%
26,CCOC(=O)c1[nH]c2ccccc2c1N=C(C)N(CC)CC,-29.6%
27,COc1ccccc1N1CC(C(=O)OCC(=O)Nc2c(C)cccc2C)CC1=O (stereo not drawn),6.41%

row,SMILES,"hERG current change (%, negative = inhibition) at 1uM"
1,O=C(Nc1ccc(-n2cc(Br)cn2)cc1)c1ccncc1,18%
2,c1ccc2c(CN3CCOCC3)c[nH]c2c1,15.8%
3,CC(C)[C@H]1CN=C2N(CCNC(=O)CCC3CCCCC3)[C@H](Cc3ccc(O)cc3)CN21,-2.53%
4,O=C(O)c1ccc(NC(=S)NC(NC(=O)c2ccco2)C(Cl)(Cl)Cl)cc1 (stereo not drawn),4.1%
5,COc1cccc(NC(=O)Nc2cccn(Cc3ccc(C)cc3)c2=O)c1,17.8%
6,COc1ccc(CCC(=O)NCCc2cn3c(C)csc3n2)cc1,5.57%
7,CCOC(=O)N1CCC2(CC1)C(C#N)=C(N)Oc1n[nH]c(CSc3ccc(C)cc3)c12,5.09%
8,CSC1=NCCN1C(=O)COc1ccccc1,13.4%
9,CSc1cccc(NC(N)=O)c1,8.09%
10,O=C(Nc1cccc(Cl)c1)OC1CCCCc2cccnc21 (stereo not drawn),14.2%
11,NC(=O)c1c(NC(=O)c2ccc(F)cc2)sc2c1CCC2,11.8%
12,CC(C)[C@H](NC(=O)OC(C)(C)C)C(=O)N1CCC(C(=O)N[C@@H](C)C(=O)Nc2ccc(F)cc2)CC1,11.9%
13,COc1ccc(-c2nn(CCC#N)cc2C(=O)Nc2ccccc2Br)cc1[N+](=O)[O-],0.755%
14,CNc1ccc(/C=C/C(=O)c2ccc3c(c2)OCCO3)cc1[N+](=O)[O-],14.5%
15,COc1ccc(/C=C/c2ccc3cccc(O)c3n2)c(OC)c1OC,19.3%
16,Cc1ccc(C)c(OCc2cc(C(=O)NC3CCOC(C)(C)C3)no2)c1 (stereo not drawn),12.5%
17,COc1ccc(-n2c(SCC[NH+](C)C)nc3ccccc3c2=O)cc1.[Cl-],-1.62%
18,CSc1nnnn1CCn1nnnc1SC,8%
19,Cl.O.O=C(NCCCCCCNC(=O)c1cncc(O)c1)c1cncc(O)c1,10.5%
20,N#Cc1c(-c2ccc3c(c2)OCO3)ccn2nc(-c3cccc(C(F)(F)F)c3)nc12,0.0555%
21,COCCCNC(=S)Nc1ccc2nc3n(c(=O)c2c1)CCCCC3,10.9%
22,CN(C)/C=N/c1nc2nccc(-c3ccccc3)n2n1,11.4%
23,Cc1ccc(S(=O)(=O)Nc2nc3ccccc3nc2NCc2ccco2)cc1,4.78%
24,Cc1ccc(S(=O)(=O)N2CCN(CC(=O)Nc3ccc([N+](=O)[O-])cc3)CC2)cc1C,-3.12%
25,CC(C)CN(C(=O)c1cccc(S(=O)(=O)N2CCN(C)CC2)c1)C1CCS(=O)(=O)C1 (stereo not drawn),15.7%
26,COc1cccc(CN(C)CC(=O)Nc2sc3c(c2C#N)CCC3)c1OC,7.66%
27,O=C(CCc1nc2ccccc2c(=O)[nH]1)OCc1ccc(-c2ccccc2)cc1,15%
